Consider four molecules from paper PMC3677938.

Protein sequences, listed by entry. Tags and fused reporters are not part of them.
UniProt P42568: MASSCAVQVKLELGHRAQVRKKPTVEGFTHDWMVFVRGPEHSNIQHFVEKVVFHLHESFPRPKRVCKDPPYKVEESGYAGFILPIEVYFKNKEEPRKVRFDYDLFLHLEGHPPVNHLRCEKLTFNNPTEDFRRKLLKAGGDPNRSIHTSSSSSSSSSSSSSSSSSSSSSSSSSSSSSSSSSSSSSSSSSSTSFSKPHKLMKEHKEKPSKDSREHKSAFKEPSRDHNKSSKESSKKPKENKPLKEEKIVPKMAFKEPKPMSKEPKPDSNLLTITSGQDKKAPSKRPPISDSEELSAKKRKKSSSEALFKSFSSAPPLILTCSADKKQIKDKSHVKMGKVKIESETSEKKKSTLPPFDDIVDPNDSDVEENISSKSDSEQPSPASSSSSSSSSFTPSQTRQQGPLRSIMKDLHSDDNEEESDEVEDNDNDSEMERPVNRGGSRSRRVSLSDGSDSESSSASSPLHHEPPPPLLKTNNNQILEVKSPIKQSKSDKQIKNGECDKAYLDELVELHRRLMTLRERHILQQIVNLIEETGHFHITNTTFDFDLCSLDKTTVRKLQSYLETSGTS
UniProt Q9NQU5: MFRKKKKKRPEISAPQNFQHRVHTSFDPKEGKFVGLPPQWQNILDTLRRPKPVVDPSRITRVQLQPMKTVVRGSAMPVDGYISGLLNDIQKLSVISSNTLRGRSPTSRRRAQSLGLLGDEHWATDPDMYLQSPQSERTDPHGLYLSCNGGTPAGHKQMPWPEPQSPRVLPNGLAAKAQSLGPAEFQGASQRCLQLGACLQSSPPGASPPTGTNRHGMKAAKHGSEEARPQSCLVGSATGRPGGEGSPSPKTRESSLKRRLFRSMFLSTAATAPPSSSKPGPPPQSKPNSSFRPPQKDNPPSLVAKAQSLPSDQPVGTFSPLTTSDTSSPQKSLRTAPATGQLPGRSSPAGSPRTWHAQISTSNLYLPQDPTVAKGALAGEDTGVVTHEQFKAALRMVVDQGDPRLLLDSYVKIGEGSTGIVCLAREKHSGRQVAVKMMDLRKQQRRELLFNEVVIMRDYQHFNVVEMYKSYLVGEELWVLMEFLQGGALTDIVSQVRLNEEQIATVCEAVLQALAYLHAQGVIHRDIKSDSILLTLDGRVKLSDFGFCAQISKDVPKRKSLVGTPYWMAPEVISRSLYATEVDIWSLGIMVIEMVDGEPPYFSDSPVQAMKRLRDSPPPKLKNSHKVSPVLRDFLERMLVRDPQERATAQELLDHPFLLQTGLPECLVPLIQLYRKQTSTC
UniProt A2AM29: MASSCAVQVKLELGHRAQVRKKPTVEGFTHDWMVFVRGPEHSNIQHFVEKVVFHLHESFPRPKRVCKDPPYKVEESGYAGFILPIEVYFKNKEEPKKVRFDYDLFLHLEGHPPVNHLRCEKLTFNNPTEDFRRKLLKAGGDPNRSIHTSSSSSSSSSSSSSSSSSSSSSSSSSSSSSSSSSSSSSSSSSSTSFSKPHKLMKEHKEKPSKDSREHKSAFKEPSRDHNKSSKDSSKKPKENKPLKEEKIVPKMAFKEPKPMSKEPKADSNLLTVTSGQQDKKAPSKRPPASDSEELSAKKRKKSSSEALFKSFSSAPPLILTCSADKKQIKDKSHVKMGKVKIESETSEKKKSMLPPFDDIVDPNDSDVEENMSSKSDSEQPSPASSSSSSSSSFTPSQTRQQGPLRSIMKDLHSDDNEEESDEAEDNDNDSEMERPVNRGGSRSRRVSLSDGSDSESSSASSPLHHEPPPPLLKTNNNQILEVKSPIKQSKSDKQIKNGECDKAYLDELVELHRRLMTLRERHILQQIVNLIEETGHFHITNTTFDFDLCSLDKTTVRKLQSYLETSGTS

Results are given in words; binding and its absence hold for the method and conditions named. Binding seen in cells or lysates may run through a third protein. Some binding calls cover weakened binding; strength is not graded here. For part of these data: Where a sequence is shown, tags or fusion partners need not be part of it.

Test [1] deals with T1, GST-LBD (186–462) (human) (UniProt P10276).
T1 sequence: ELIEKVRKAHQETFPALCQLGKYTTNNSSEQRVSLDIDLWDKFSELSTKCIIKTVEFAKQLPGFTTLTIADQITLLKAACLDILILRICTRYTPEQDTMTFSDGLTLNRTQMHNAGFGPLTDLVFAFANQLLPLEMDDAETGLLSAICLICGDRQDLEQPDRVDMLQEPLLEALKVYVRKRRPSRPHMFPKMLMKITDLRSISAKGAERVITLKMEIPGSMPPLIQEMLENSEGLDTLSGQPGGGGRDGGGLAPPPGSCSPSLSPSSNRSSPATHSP
Briefly: pull-down; GST-RARα fusion proteins on beads (2 µg) incubated at 4°C for 4 hours, in the presence or absence of atRA, with 35S-methionine-labelled in vitro translated proteins; 20 mM Tris-HCl pH 7.9, 100 mM KCl, 0.1% NP-40; washes with 150 mM KCl and 0.3% NP-40; autoradiography; only the target purified.

For a further test, the target named is T2, GST-AF-1 (1–92) (human) (UniProt P10276).
T2 sequence: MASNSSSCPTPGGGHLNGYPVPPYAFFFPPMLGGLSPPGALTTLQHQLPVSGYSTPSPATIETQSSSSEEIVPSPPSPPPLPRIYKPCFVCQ
Described as above.

A further test has as its target T3, GST-DBD (92–173) (human) (UniProt P10276).
T3 sequence: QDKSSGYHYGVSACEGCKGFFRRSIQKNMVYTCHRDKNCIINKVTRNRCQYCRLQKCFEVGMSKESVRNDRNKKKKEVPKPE
The description is as above.

Test [2] addresses T4, RARα (endogenous, P19 cells) (mouse (endogenous in P19)) (UniProt P11416).
T4 sequence: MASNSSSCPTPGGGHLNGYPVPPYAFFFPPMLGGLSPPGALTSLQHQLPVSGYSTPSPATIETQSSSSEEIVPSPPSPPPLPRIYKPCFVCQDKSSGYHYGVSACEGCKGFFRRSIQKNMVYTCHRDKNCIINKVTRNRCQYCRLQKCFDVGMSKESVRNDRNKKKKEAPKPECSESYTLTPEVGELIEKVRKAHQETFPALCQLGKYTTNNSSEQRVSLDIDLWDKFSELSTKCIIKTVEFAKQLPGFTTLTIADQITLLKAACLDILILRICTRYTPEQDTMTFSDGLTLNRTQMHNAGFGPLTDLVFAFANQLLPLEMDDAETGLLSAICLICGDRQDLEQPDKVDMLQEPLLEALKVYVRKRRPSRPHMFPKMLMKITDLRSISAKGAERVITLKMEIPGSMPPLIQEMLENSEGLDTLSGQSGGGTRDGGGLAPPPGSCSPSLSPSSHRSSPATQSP
The test is described as follows: co-IP; endogenous proteins from P19 whole cell extracts; immunoprecipitation with anti-RAR (sc551), anti-Brd4 (Santa Cruz H250) or a mix of anti-AF9 antibodies (Bethyl); western blot with anti-Brd4 or anti-AF9. A general note: A western blot detects proteins with antibodies after separation by electrophoresis.

“35S-labeled AF9 (from UniProt P42568 1-568)”: the binding result in test [1] was “no binding”; with GST-AF-1 (1–92) (human) it was “binds”; in the test with GST-DBD (92–173) (human) it was “binds”.
As for “35S-labeled PAK6 (from UniProt Q9NQU5 1-681)”, the figures for the binding entry in the test with GST-AF-1 (1–92) (human) and with GST-DBD (92–173) (human) were “no binding” and “binds”, respectively.
On to “AF9 (endogenous, P19 cells) (from UniProt A2AM29 1-569)”, for which, in test [2], the binding result is “binds”.

B1: 35S-labeled NAP1L2 (protein, UniProt Q9ULW6 1-460)
chain: MAESENRKELSESSQEEAGNQIMVEGLGEHLERGEDAAAGLGDDGKCGEEAAAGLGEEGENGEDTAAGSGEDGKKGGDTDEDSEADRPKGLIGYVLDTDFVESLPVKVKYRVLALKKLQTRAANLESKFLREFHDIERKFAEMYQPLLEKRRQIINAIYEPTEEECEYKSDSEDCDDEEMCHEEMYGNEEGMVHEYVDEDDGYEDYYYDYAVEEEEEEEEEDDIEATGEENKEEEDPKGIPDFWLTVLKNVDTLTPLIKKYDEPILKLLTDIKVKLSDPGEPLSFTLEFHFKPNEYFKNELLTKTYVLKSKLAYYDPHPYRGTAIEYSTGCEIDWNEGKNVTLKTIKKKQKHRIWGTIRTVTEDFPKDSFFNFFSPHGITSNGRDGNDDFLLGHNLRTYIIPRSVLFFSGDALESQQEGVVREVNDAIYDKIIYDNWMAAIEEVKACCKNLEALVEDIDR
modifications: 35S-methionine label
B1: the figures for the binding result (in test [1]; with GST-AF-1 (1–92) (human); with GST-DBD (92–173) (human)) were “binds”, “no binding” and “binds”, respectively.
